Results taken from the supplement of paper PMC11417369.
This is one part of the list.

tested on: PfSIP2 AP2 domain 1 (GST-tagged); test: gcPBM binding intensity (ln(normalized median fluorescence intensity)); higher = stronger DNA binding
Procedure, shortened: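 Plasmodium falciparum DNA-binding domains carrying a GST tag were expressed in E. coli and applied for 1 h, at about 25 μg on average, to an Agilent 4 × 180k array. The array held primer-extended double-stranded 36-bp intergenic genomic probes together with negative controls, and binding took place in 1× PBS with 1% milk, 0.2 mg/ml BSA, 0.5% salmon testes DNA and 0.03% Triton X-100. An Alexa488 anti-GST antibody detected bound protein, and the array was scanned at 488 nm. Binding intensity is taken as the highest Masliner-normalised natural-log median intensity across replicate spots of either probe orientation.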

Row | Sequence | gcPBM binding intensity (ln)
1 | AAAGGACAAAAAAATGCATGCCGTTAAATTATGTAC [TGCATGCA_site512] | 6.99
2 | GTACAAAAATAAATTGCACACATTTTAATAAAAAAA [CACACA_site2130] | 7.16
3 | TATATTTATTTATATACACACATATTTATAAATATA [CACACA_site7047] | 7.02
4 | AGATTTAAATATCATACACACTTTATCTATAATACA [CACACA_site6581] | 6.9
5 | TAGTTGTTTATAACACGTTGACAGAAATGTTATGTA [GTGCAC_negctrl_site624] | 6.95
6 | CAAAATTGACATGACGCACACAAGTGTAGATATTTT [CACACA_site1250] | 6.75
7 | AAGCATTTCCATGGTGGTACTATACAAATAATAATT [XGTACX_site6193] | 6.8
8 | TATAAATAATGTTAAACACACATACCGATATATAAC [CACACA_site7306] | 6.91
9 | ATTTTTTTTTTTAAATGTACATAATATATATATAAT [XGTACX_site2686] | 7.03
10 | TCTCTCTTATAAAATACACACGAACAATCATATTAT [CACACA_site8065] | 7.21
11 | AAAAAAATTTGTATCACACACGTATTATAAAAAAAT [CACACA_site4182] | 6.86
12 | TATTCGTGCAATAATGGTACACTTATAAATTATTCA [XGTACX_site1430] | 7.65
13 | TATTAAACTAAATGTAGTACATACACAAACGTAATC [XGTACX_site4905] | 7.09
14 | CGAACATTATAAATGTCATTTTTTCCAACTTGATCT [GTGCAC_negctrl_site501] | 6.69
15 | TTTTTTTAAATATACACACACATTTATACCTATATA [CACACA_site7572] | 6.99
16 | TATATATATATAGACACACACACACCCATATATATA [CACACA_site4117] | 9.12
17 | TATAACTATAAAAGTAGTACACATATATATTATATA [XGTACX_site1391] | 7.79
18 | AATGGTTTAAAATACTGTACATATATATAAAAGTAA [XGTACX_site6187] | 7.14
19 | TTCCTAATTGACAACACACACAACAAAAAAGGGATT [CACACA_site1279] | 7.19

Row | Sequence | gcPBM binding intensity (ln)
20 | CACTAAAATAAACACACACACACACCGATATATATA [CACACA_site9379] | 7.58
21 | CTTGTCATTTTGCACACACACATGTATAGGTTATTA [CACACA_site7431] | 7.78
22 | TATATTTATATGATAACACACATAAATTATACATTT [CACACA_site1671] | 6.88
23 | TTAATTTTATTTTTTTGTACACATAAATATTATAAA [XGTACX_site4680] | 7.16
24 | AGTCTGAATAAAATTACACACATATACATATATATA [CACACA_site1780] | 7.41
25 | TAAATATATTAAGCTTGTACATGAAAAAAAAAAAAA [XGTACX_site3264] | 7.13
26 | ATATATAAATTTTAGTGTACATTAATTTTTTTTTTT [XGTACX_site7782] | 6.95
27 | AAAAAAAAAAAAAAAACACACAATAAAGTAAAATTT [CACACA_site135] | 7.55
28 | TATGTATATAAATTAACACACATATGTGGTTAATAG [CACACA_site3143] | 6.89
29 | TACCTTTTTTGTTTTATGCACACCATATAACCAAGG [CACACA_site30] | 7.82
30 | TAAAAAAAAAAAAAAGCATGCTATATTATATTACAC [TGCATGCA_site241] | 6.89
31 | AAGAAATATTTATACACACACACAAACATATAAATA [CACACA_site6981] | 7.07
32 | TATAACTATTCACAGACATGCACATAATAACAATAA [TGCATGCA_site207] | 8.14
33 | TTTTTTTTTCCGTGTTGTACAAAAAAAAAGATTTTG [XGTACX_site3925] | 6.99
34 | TATATTTTTTTTGTGCGTACATACCATTTTAATAAT [XGTACX_site2751] | 7.41
35 | CACAAACAAAAACACACACACACACCCACAAAAATG [CACACA_site2429] | 7.06
36 | TATTATTTTATGAATACACACATATACGAAAATATT [CACACA_site964] | 7.03
37 | AATTATTGTATGCTATACGTTCCCCTCTAATTTATC [CACACA_negctrl_site1052] | 6.8
38 | ATTGGGTACAAATACACACACATATAAATATTAATA [CACACA_site7173] | 7.11

Row | Sequence | gcPBM binding intensity (ln)
39 | TATTTTTATATAATGTGTACTTATACCTTATTTTTT [XGTACX_site1658] | 7.2
40 | AAAAAAAAAAAACACACACACACACTAATACATACA [CACACA_site8135] | 7.21
41 | TTTCCCTACCAAAAATGTACTTATAAGCGTTTTTAT [XGTACX_site739] | 6.88
42 | TTTTTAAATTATTGCACACAAAAATGAAAGGAAAAA [CACACA_site1455] | 7.2
43 | CTAAAAATCTTTTGTTGTACTTTTAGATAATCAGGA [XGTACX_site3968] | 7.06
44 | TACATATTTATATACACACACACCGTCCGTGTTAAA [CACACA_site7413] | 6.95
45 | AAGTAAAAAAATAGCACACACACAAAAACACAGACA [CACACA_site4839] | 7.45
46 | AAAGGGATGTTCATTCTTTTTTTTTTTTTTGTATAT [CACACA_negctrl_site511] | 6.69
47 | ATTTTCACCTGAACGGTGCATATTTAATTTTAGGTT | 10.5
48 | ATATATGTACAAATTGTGCGCAATAATTTTGTCTTT | 7.4
49 | ATAGAAACATATTGACGTACAGTATAATAATACAGT [XGTACX_site197] | 7.07
50 | AAATCAACTTATTTTTGTACATATATTTATTATATA [XGTACX_site2925] | 6.99
51 | TCTTTATGTAAGGTCTTCCACAAAAAAATTAAAAAA [TGCATGCA_negctrl_site229] | 7.05
52 | GAAAAATTAATAAATAAACACACATATATATATATA [CACACA_site8835] | 9.9
53 | ATATATTATAGAGGTGTGCACTACATACATTATAAT [GTGCAC_site9991] | 10.2
54 | GAATGAAAATAAAATTGTACACATATCTATATCTAT [XGTACX_site2642] | 7.04
55 | AAAAAAAAAAAAAGTTGTACATTATTTTCCTAATTC [XGTACX_site7998] | 6.91
56 | TATATTATATGTATTGCACACCTTCAACAACTACTT [CACACA_site8121] | 7.25
57 | TTTAATTAGGATAATTGTACTGAACTAAGTATATTT [XGTACX_site1871] | 6.79
